This is one part of the list. Sequences were assembled here from the parent chain. Values near 0.05 are background.
B1: TEV protease; numbered along this chain (parent)
chain: MGESLFKGPRDYNPISSSICHLTNESDGHTTSLYGIGFGPFIITNKHLFRRNNGTLVVQSLHGVFKVKDTTTLQQHLVDGRDMIIIRMPKDFPPFPQKLKFREPQREERICLVTTNFQTKSMSSMVSDTSCTFPSGDGIFWKHWIQTKDGQCGSPLVSTRDGFIVGIHSASNFTNTNNYFTSVPKNFMELLTNQEAQQWVSGWRLNADSVLWGGHKVFMVKPEEPFQPVKEATQL

Variants of: B1
Test: raw area under fraction-flipped curve 0-4 h after induction (AUC4h, not background-subtracted), DNA-recorder readout of cleavage of the substrate (dimensionless); higher = more cleavage of the substrate by the protease variant
Details: temperature: 34 °C; time window: 0-4 h after rhamnose induction
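Further: Bxb1 expression induced with 0.2% (w/v) L-rhamnose at OD600 near 0.5, cultures sampled hourly, flipped fraction per protease–substrate barcode pair counted by paired-end Illumina sequencing.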

Row | Variant | area with substrate ECLYFQS | area with substrate EELYFQS | area with substrate EGLYFQS | area with substrate EILYFQS | area with substrate EQLYFQS | area with substrate ERLYFQS | area with substrate ESLYFQS | area with substrate EPLYFQS | area with substrate EWLYFQS | area with substrate EYLYFQS
1 | MGESLFKGPRDYNPISSSICHLTNESDGHTTSLYGIGFGPFIITNKHLFRRNNGTLVVQSLHGVFKVKDTTTLQQHLVDGRDMIIIRMAKDFPPFPQKLKFREPQREERICLVTTNFQTKSMSSMVSDTSCTFPSGDGIFWKHWIQTKDGQCGSPLVSTRDGFIVGIHSASNFTNTNNYFTSVPKNFMELLTNQEAQQWVSGWRLNADSVLWGGHKVFMVKPEEPFQPVKEATQL [P89A] | 0.0825 | 0.096 | 0.075 | 0.0723 | 0.103 | 0.0875 | 0.0861 |  |  | 
2 | MGESLFKGPRDYNPISSSICHLTNESDGHTTSLYGIGFGPFIITNKHLFRRNNGTLVVQSLHGVFKVKDTTTLQQHLVDGRDMIIIRMPKDFPPFPQKLKFREPQREERICLVLTNFQTKSMSSMVSDTSCTFPSGDGIFWKHWIQTKDGQCGSPLVSTRDGFIVGIHSASNFTNTNNYFTSVPKNFMELLTNQEAQQWVSGWRLNADSVLWGGHKVFMVKPEEPFQPVKEATQL [T114L] | 0.115 |  | 0.095 |  | 0.136 | 0.108 | 0.111 | 0.145 | 0.123 | 0.111
3 | MGESLFKGPRDYNPISSSICHLTNESDGHTTSLYGIGFGPFIITNKHLFRRNNGTLVVQSLHGVFKVKDTTTLQQHLVQGRDMIIIRMPKDFPPFPQKLKFREPQREERICLVTTNFQTKSMSSMVSDTSCTFPSGDGIFWKHWIQTKDGQCGSPLVSTRDGFIVGIHSASNFTNTNNYFTSVPKNFMELLTNQEAQQWVSGWRLNADSVLWGGHKVFMVKPEEPFQPVKEATQL [D79Q] | 0.0715 |  |  |  |  |  |  |  |  | 
4 | MGESLFKGPRDYNPISSSICHLTNESDGHTTSLYGIGFGPFIITNKHLFRRNNGTLVVQSLHGVFKVKDTTTLQQHLVDGRDMIIIRMPKDFPPFPQKLQFREPQREERICLVTTNFQTKSMSSMVSDTSCTFPSGDGIFWKHWIQTKDGQCGSPLVSTRDGFIVGIHSASNFTNTNNYFTSVPKNFMELLTNQEAQQWVSGWRLNADSVLWGGHKVFMVKPEEPFQPVKEATQL [K100Q] | 0.102 |  |  | 0.0847 |  | 0.106 | 0.111 | 0.123 |  | 
5 | MGESLFKGPRDYNPISSSICHLTNESDGHTTSLYGIGFGPFIITNKHLFRRNNGTLVVQSLHGVFKVKDTTTLQQHLVDGRDMIIIRMPKDFPPFPQKLKFREPQREERICLVTTNFQTKSMSSMVSDTSCTFPSGDGIFWKHWIQTKDGQCGSPLVSTRDGFIVGIHSASNFTNTNNYFTSVPKNFRELLTNQEAQQWVSGWRLNADSVLWGGHKVFMVKPEEPFQPVKEATQL [M188R] | 0.113 | 0.0897 |  |  |  |  | 0.0846 | 0.107 |  | 
6 | MGESLFKGPRDYNPISSSICHLTNESDGHTTSLYGIGFGPFIITNKHLFRRNNGTLVVQSLHGVFKVKDTTTLQQHLVDGRDMIIIRMPKDFPPFPQKLKFREPQREERICLVTTNFQTKSMSSMVSDTSCTFPSGDGIFWKHWIQTKDGQCGSPLVSTRDGFIVGIHSASNFTNTNNYFTSVPKNFMELLTNQEAQQWVSGWRLNADSVLWGGKKVFMVKPEEPFQPVKEATQL [H215K] | 0.0763 |  |  | 0.0808 |  | 0.0789 | 0.0816 | 0.088 |  | 
7 | MGESLFKGPRDYNPISSSICHLTNESDGHTTSLYGIGFGPFIITNKHLFRRNNGTLVVQSLHGVFKVKDTTTLQQHLVDGRDMIIIRLPKDFPPFPQKLKFREPQREERICLVTTNFQTKSMSSMVSDTSCTFPSGDGIFWKHWIQTKDGQCGSPLVSTRDGFIVGIHSASNFTNTNNYFTSVPKNFMELLTNQEAQQWVSGWRLNADSVLWGGHKVFMVKPEEPFQPVKEATQL [M88L] | 0.115 |  | 0.0746 | 0.107 | 0.139 | 0.0904 | 0.101 | 0.118 | 0.109 | 
8 | MGESLFKGPRDYNPISSSICHLTNESDGHTTSLYGIGFGPFIITNKHLFRRNNGTLVVQSLHGVFKVKDTTTLQQHLVDGRDMIIIRMPKDFPPFPQKLKFREPQREERICLVTQNFQTKSMSSMVSDTSCTFPSGDGIFWKHWIQTKDGQCGSPLVSTRDGFIVGIHSASNFTNTNNYFTSVPKNFMELLTNQEAQQWVSGWRLNADSVLWGGHKVFMVKPEEPFQPVKEATQL [T115Q] | 0.109 | 0.137 | 0.104 | 0.118 | 0.0954 | 0.0938 | 0.132 |  | 0.0974 | 0.121
9 | MHESLFKGPRDYNPISSSICHLTNESDGHTTSLYGIGFGPFIITNKHLFRRNNGTLVVQSLHGVFKVKDTTTLQQHLVDGRDMIIIRMPKDFPPFPQKLKFREPQREERICLVTTNFQTKSMSSMVSDTSCTFPSGDGIFWKHWIQTKDGQCGSPLVSTRDGFIVGIHSASNFTNTNNYFTSVPKNFMELLTNQEAQQWVSGWRLNADSVLWGGHKVFMVKPEEPFQPVKEATQL [G2H] | 0.11 |  | 0.105 |  |  | 0.13 | 0.141 |  |  | 
10 | MGESLFKGPRDYNPISSSICHLTNESDGHTTSLYGIGFGPFIITNKHLFRRNNGTLVVQSLHGVFKVKDTTTLQQHLVDGRDMIIIRMPKDFPPFPQKLKFREPQNEERICLVTTNFQTKSMSSMVSDTSCTFPSGDGIFWKHWIQTKDGQCGSPLVSTRDGFIVGIHSASNFTNTNNYFTSVPKNFMELLTNQEAQQWVSGWRLNADSVLWGGHKVFMVKPEEPFQPVKEATQL [R106N] | 0.101 |  |  |  | 0.097 | 0.091 | 0.0778 |  |  | 0.0943

Same assay, conditions: temperature: 34 °C; time window: 0-4 h after rhamnose induction

Row | Variant | area with substrate EMLYFQS | area with substrate EVLYFQS | area with substrate EDLYFQS | area with substrate EKLYFQS | area with substrate ELLYFQS | area with substrate EFLYFQS | area with substrate ETLYFQS | area with substrate EHLYFQS
11 | MGESLFKGPRDYNPISSSICHLTNESDGHTTSLYGIGFGPFIITNKHLFRRNNGTLVVQSLHGVFKVKDTTTLQQHLVQGRDMIIIRMPKDFPPFPQKLKFREPQREERICLVTTNFQTKSMSSMVSDTSCTFPSGDGIFWKHWIQTKDGQCGSPLVSTRDGFIVGIHSASNFTNTNNYFTSVPKNFMELLTNQEAQQWVSGWRLNADSVLWGGHKVFMVKPEEPFQPVKEATQL [D79Q] | 0.0639 | 0.115 |  |  |  |  |  | 
12 | MGESLFKGPRDYNPISSSICHLTNESDGHTTSLYGIGFGPFIITNKHLFRRNNGTLVVQSLHGVFKVKDTTTLQQHLVDGRDMIIIRMPKDFPPFPQKLQFREPQREERICLVTTNFQTKSMSSMVSDTSCTFPSGDGIFWKHWIQTKDGQCGSPLVSTRDGFIVGIHSASNFTNTNNYFTSVPKNFMELLTNQEAQQWVSGWRLNADSVLWGGHKVFMVKPEEPFQPVKEATQL [K100Q] |  | 0.0869 | 0.135 | 0.104 | 0.0755 |  |  | 
13 | MGESLFKGPRDYNPISSSICHLTNESDGHTTSLYGIGFGPFIITNKHLFRRNNGTLVVQSLHGVFKVKDTTTLQQHLVDGRDMIIIRMPKDFPPFPQKLKFREPQREERICLVTTNFQTKSMSSMVSDTSCTFPSGDGIFWKHWIQTKDGQCGSPLVSTRDGFIVGIHSASNFTNTNNYFTSVPKNFRELLTNQEAQQWVSGWRLNADSVLWGGHKVFMVKPEEPFQPVKEATQL [M188R] | 0.0733 |  |  |  | 0.0436 |  |  | 
14 | MGESLFKGPRDYNPISSSICHLTNESDGHTTSLYGIGFGPFIITNKHLFRRNNGTLVVQSLHGVFKVKDTTTLQQHLVDGRDMIIIRMPKDFPPFPQKLKFREPQREERICLVTTNFQTKSMSSMVSDTSCTFPSGDGIFWKHWIQTKDGQCGSPLVSTRDGFIVGIHSASNFTNTNNYFTSVPKNFMELLTNQEAQQWVSGWRLNADSVLWGGKKVFMVKPEEPFQPVKEATQL [H215K] | 0.0718 | 0.072 | 0.08 |  | 0.074 |  |  | 
15 | MGESLFKGPRDYNPISSSICHLTNESDGHTTSLYGIGFGPFIITNKHLFRRNNGTLVVQSLHGVFKVKDTTTLQQHLVDGRDMIIIRLPKDFPPFPQKLKFREPQREERICLVTTNFQTKSMSSMVSDTSCTFPSGDGIFWKHWIQTKDGQCGSPLVSTRDGFIVGIHSASNFTNTNNYFTSVPKNFMELLTNQEAQQWVSGWRLNADSVLWGGHKVFMVKPEEPFQPVKEATQL [M88L] | 0.111 |  |  | 0.073 | 0.122 | 0.154 |  | 
16 | MGESLFKGPRDYNPISSSICHLTNESDGHTTSLYGIGFGPFIITNKHLFRRNNGTLVVQSLHGVFKVKDTTTLQQHLVDGRDMIIIRMPKDFPPFPQKLKFREPQREERICLVTQNFQTKSMSSMVSDTSCTFPSGDGIFWKHWIQTKDGQCGSPLVSTRDGFIVGIHSASNFTNTNNYFTSVPKNFMELLTNQEAQQWVSGWRLNADSVLWGGHKVFMVKPEEPFQPVKEATQL [T115Q] | 0.136 | 0.125 | 0.117 | 0.119 | 0.107 |  | 0.143 | 
17 | MHESLFKGPRDYNPISSSICHLTNESDGHTTSLYGIGFGPFIITNKHLFRRNNGTLVVQSLHGVFKVKDTTTLQQHLVDGRDMIIIRMPKDFPPFPQKLKFREPQREERICLVTTNFQTKSMSSMVSDTSCTFPSGDGIFWKHWIQTKDGQCGSPLVSTRDGFIVGIHSASNFTNTNNYFTSVPKNFMELLTNQEAQQWVSGWRLNADSVLWGGHKVFMVKPEEPFQPVKEATQL [G2H] |  | 0.125 |  |  |  | 0.162 |  | 0.13
18 | MGESLFKGPRDYNPISSSICHLTNESDGHTTSLYGIGFGPFIITNKHLFRRNNGTLVVQSLHGVFKVKDTTTLQQHLVDGRDMIIIRMPKDFPPFPQKLKFREPQNEERICLVTTNFQTKSMSSMVSDTSCTFPSGDGIFWKHWIQTKDGQCGSPLVSTRDGFIVGIHSASNFTNTNNYFTSVPKNFMELLTNQEAQQWVSGWRLNADSVLWGGHKVFMVKPEEPFQPVKEATQL [R106N] | 0.106 | 0.0784 |  |  |  |  | 0.126 | 
